# Laboratory results taken from the RNAGym collection of RNA variant scans (doi:10.1093/nar/gkz1192).
# The source gives no read counts; variants with many changes may rest on few reads.
# B1: CPEB3 Ribozyme (parent)
# chain: UAACAGGGGGCCACAGCAGAAGCGUUCACGUCGCAGCCCCUGUCAGAUUCUGGUGAAUCUGCGAAUUCUGCUGUAUAUCUC
# Variants of: B1
# Assay: self-cleavage, relative activity (ratio to wild type); higher = more cleavage; in vitro, sequencing
# Procedure, shortened: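 Relative activity compares each variant's cleaved/total read fraction with that of the unmutated ribozyme. To get these fractions, barcoded CPEB3 ribozyme libraries from rounds of error-prone PCR were transcribed with T7 RNA polymerase for 5 hours at 37°C and then given 15 min of DNase I treatment before EDTA was added. The RNAs were reverse transcribed with template switching and sequenced on Illumina, and DNA sequencing linked barcodes to variants. A minimum of 5 reads applied, and three batches were averaged.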
row,Variant,self-cleavage
1,A5G U43C U60C A65G,0.41
2,A5U A20U U48C,0.13
3,A5U G9C U49C U72C,0.07
4,A5G U41C G61A A64G U67C A77U,0.06
5,A5U A18G U60A,0.55
6,A5U A65U U72C U78C,0.22
7,A5U U49C U80A,0.73
8,A5G U49A A56U U67C,0.04
9,A5U G9A C17U A20U A64G,0.07
10,A5U U25C C29U,0.41
11,A5U A20U U26A U51A G53A U80A,0.42
12,A5G U51A U69C A75U,0.42
13,A5G U26C A35G U48C,0.16
14,A5G U43C A45C,0.52
15,A5U A20U A21G A28G G30A C50A G63C,0.05
16,A5U A13U A15C U31C U41G A56U,0.09
17,A5U C62G U72C,0.33
18,A5G G33U U49C U51A,0.1
19,A5U U41G A65G,0.23
20,A5G U31C C50U U76C,0.78
21,A5U A28U U43C U54G,0.37
22,A5U A28U U60A,0.44
23,A5U A28U U60C,0.83
24,A5U U26C A64U,0.34

row,Variant,self-cleavage
1,A5U U26C U43A U49C U72C U74C A77G,0.18
2,A5U A56G U60A U76C,0.69
3,A5U U25A A64G U78C,0.13
4,A5U C12U U43C U49C U54C U76C U78C,0.07
5,A5G U31C A35U A64G U80C,0.41
6,A5U U48C A64U,0.13
7,A5U C62A A75U,0.23
8,A5G U26A U54C U58A A64G U67C,0.08
9,A5U G7U A47U A56G U78C,0.08
10,A5G U60C U66A,0.24
11,A5U A35G U60A A77G,0.84
12,A5G U26C A65G,0.15
13,A5U G24A U54C U80A,0.08
14,A5G U41C G46C A75U U80C,0.07
15,A5U U26C A45G G46A U78A,0.07
16,A5U G9A A18G U43C U66C U67A U80A,0.05
17,A5G U25C A35G A47G U58C U74A,0.29
18,A5U A15U U25A U72C U76A U78C,0.15
19,A5U A15G U25C A47G U48C U69C,0.27
20,A5U A13U G22C U48A U58C,0.19
21,A5G U51G U78C,0.35
22,A5U G6A G16A U43G U80A,0.3
23,A5U A45U U66A U80C,0.23
24,A5U G9U U74C,0.13

row,Variant,self-cleavage
1,A5G U25C A35G U54C A65G U69C,0.3
2,A5U A21U U58C U78A,0.11
3,A5G U43C U49A A57C,0.11
4,A5U U26C A47G U54C,0.63
5,A5U A13U U25C G61U U72G A75G,0.12
6,A5G G61A U67C,0.27
7,A5U U51A A65C,0.13
8,A5U C37G U60A,0.25
9,A5U G16C U25A A35U U49C,0.11
10,A5G U26C A28G A47G A65U U80C,0.04
11,A5G U48C G53A U54C,0.32
12,A5U G53U A56G U74C,1.23
13,A5G U25C A47G A75G,0.08
14,A5U U41A A47G,0.25
15,A5U A13G A18U U78A,0.29
16,A5G U31G A47G U49A U72C,0.48
17,A5G U31A C34U U41C U67A A77U,0.2
18,A5U A35G A47G,1.42
19,A5G G46U G63A,0.34
20,A5G U25C G61A,0.65
21,A5U A28U C29A,0.45
22,A5U A18U G33C U43A U48C,0.24
23,A5U A13U C14A,0.96
24,A5U A13G A18G U41C C71A,0.1

row,Variant,self-cleavage
1,A5G U25C U31C U43A U60A,0.3
2,A5U A18G A45G,0.36
3,A5U A45G U48C A64G U66C U80C,0.19
4,A5U G9U U54A,0.13
5,A5G G30C U31C U54A,0.13
6,A5U C39G U41A U43G U72A,0.08
7,A5U A65U U67A,0.21
8,A5U A13G A20G G55U A77U,0.68
9,A5U U26C G61C A75U,0.46
10,A5U U26C C40G U58A A64G U66C A77G,0.21
11,A5U A15U U31G G33C U78C,0.07
12,A5G U26C A47C U72C,0.26
13,A5G G70A A75G,0.11
14,A5U G7A C23G U41A U67C,0.1
15,A5U U48C U54A A56U U66C U80C,0.12
16,A5G U25C C32U,0.26
17,A5U C11U U49C U54A,0.11
18,A5U A21G A77G,0.59
19,A5U G6A U72A U80C,0.6
20,A5U A13G A28U U72C,0.66
21,A5G U25A A28C U72C,0.09
22,A5U U25C A64G U67C,0.24
23,A5U A18G C29U A35G U48C U72C,0.21
24,A5U U41G A57G U80C,0.46

row,Variant,self-cleavage
1,A5U A64U C71G,0.37
2,A5G U58A U69C,0.12
3,A5U A18G C27U,0.13
4,A5G U49C U80C,0.56
5,A5U G22A U43A A47U U67A U72C,0.04
6,A5U U25C U78A,0.22
7,A5G U43A A57G,0.79
8,A5U U26C A64U U78C,0.1
9,A5U A35U C38U C71U,0.35
10,A5U C17G A21G A28G A35U,0.11
11,A5U U25C A77G U78C,0.08
12,A5G G33A U43C A45U C68A,0.23
13,A5U A20U U72A U76C U80C,0.52
14,A5G U26C U51C U54C,0.63
15,A5U A65C U69C U72A,0.15
16,A5G U31C U49C A75U,0.56
17,A5G U26A U54C A64U A65U,0.16
18,A5U A18G A35G U41A U67A,0.44
19,A5G G30U A35G A57G U60C U67A C71A,0.06
20,A5U G8A C29U A45G U58C U72A U80C,0.05
21,A5U C11U A56G,0.4
22,A5U A28U U41C U58C U66C,0.24
23,A5U G7A U31C A45G,0.07
24,A5G U43G U76A,0.63

row,Variant,self-cleavage
1,A5U A18G U78C,0.75
2,A5G U26C A57G C71A,0.25
3,A5U U43C A64G,0.47
4,A5U G7C A15G G70C,0.31
5,A5G G46A U74C,0.39
6,A5U A20G C40G U60G U80C,0.35
7,A5G U54C U72C,0.83
8,A5U U26C C29U A65G U72A,0.17
9,A5U G7U U69C U72C,0.14
10,A5U A13G G22A C44A,0.07
11,A5G U54A A65U,0
12,A5U A13G U43C,0.43
13,A5U C11U A18U U26C U41A U60C U67A,0.05
14,A5U C40U G70A C71G,0.2
15,A5G U25C A35G C50U U60A,0.29
16,A5G U49C U58A U78C,0.18
17,A5U G7U U48A G52A,0.25
18,A5U U41A U58C,0.28
19,A5G U31C A45G U58C,0.05
20,A5G U43C A65G,0.22
21,A5U A21G U67C U76C,0.15
22,A5U A21G U25C U51C G53A,0.31
23,A5U A77G U80A,1.19
24,A5U U26C A28U,0.77

row,Variant,self-cleavage
1,A5U A47G U60C,0.46
2,A5U A13U U31C A47U,0.51
3,A5U A13U C40A U60A U78C,0.09
4,A5G U48C U69C A75G,0.47
5,A5G U25C C34U A56G A65G G73A,0.21
6,A5U A35G A45G U51C U69A,1.08
7,A5U A18U G33A A45U,0.48
8,A5U U49C U66C U67G,0.31
9,A5G U80A C81U,0.98
10,A5G U31C U74G,0.83
11,A5U C11U C12U U41C A65U U72C,0.21
12,A5U G19A U43A A57G,0.35
13,A5U U48C U49C A57G,0.91
14,A5G G46A A75U,0.16
15,A5U U25C U54C,0.15
16,A5G U26C A28G G70A,0.43
17,A5U C14U C39A U67C,0.1
18,A5G U26C G53C,0.38
19,A5U G9C G30A U41A,0.19
20,A5U A20G A77U,0.86
21,A5U G8U G22C A47G U69A,0.04
22,A5U A13U G22U,0.18
23,A5U G36A U80C,0.47
